# Values joined by “and” are separate entries in the source; they are usually repeats but may differ in a detail not shown here. Equal entries are not always repeated. Over roughly 5,300 compounds, “PER2::LUC luminescence relative to vehicle control” has its median near 0.96; the highest 2% begin near 1.3. This is one part of the list.
# Tested on: mPer2Luc MEF
# Test: PER2::LUC luminescence relative to vehicle control (fold of vehicle); higher = higher PER2::LUC reporter signal
# Settings: 10 µM
# Method in brief: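 The reported values are PER2::LUC luminescence as fold of vehicle control in mouse embryonic fibroblasts carrying the mPer2Luc reporter. Cells were seeded at ~3000 per well in 384-well plates in DMEM with 10% FBS at 37 °C and 5% CO2, and compounds were added at 10 μM 48 h later. ONE-Glo luminescence was read 24 h and 30 h after treatment.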
Compound,PER2::LUC luminescence (time after treatment 24 h),PER2::LUC luminescence (time after treatment 30 h)
CC(C)c1ccc2c(c1)CC[C@H]1[C@](C)(CN)CCC[C@]21C,0.712,0.857
Nc1ccc(C(=O)O)cc1,0.924 and 0.9,0.926 and 0.943
CCN1CCCC(OC(=O)C(c2ccccc2)c2ccccc2)C1 (stereo not given),0.94,0.928
C[C@H](Cc1cc2c(c(C(N)=O)c1)N(CCCO)CC2)NCCOc1ccccc1OCC(F)(F)F,0.884,0.606
CN(C)CCOc1ccc(-c2nc(-c3ccncc3)c(-c3ccc4c(c3)CC/C4=N\O)[nH]2)cc1,0.851,1.13
NCCNCCNCCN,1.02,0.896
CN(C)CCCSC(=N)N,0.801,0.768
CNC(=O)Nc1ccc(OC)c(NC(=O)NC(=O)c2cc(F)c(F)cc2Cl)c1,1.15,1.04
NS(=O)(=O)OC[C@@H]1C[C@@H](n2ccc3c(N[C@H]4CCc5ccccc54)ncnc32)C[C@@H]1O,0.538,0.688
Cc1ccc(-n2sc(=O)n(Cc3ccc(F)cc3)c2=O)cc1,1.13,1.33
O=C(NCCN1CCOCC1)c1ccc(Cl)cc1,1.09 and 1.08,0.965 and 1.2
O=C(c1ccc(CN2CCOCC2)cc1)N1CCN(C2CC2)CC1,1.07,0.963
O=C(CCc1ccc(O)cc1)c1c(O)cc(O)cc1O[C@@H]1OC(CO)[C@@H](O)[C@@H](O)C1O (stereo not given in full),0.993,0.943
C/C(=C\C(=O)Nc1ccccc1C(=O)O)c1ccc2ccccc2c1,1.53,1.46
O=C(c1ccc(/C=C/c2n[nH]c3ccccc23)cc1)N1CCNCC1,0.405,0.358
CC12CCc3occc3C1CCC13CC(=O)C(CCC12)C3 (stereo not given),0.996,0.94
COCc1nc2c([nH]1)c(=O)n(C)c(=O)n2CC(C)C,1.09,0.792
COc1ccc(C[C@H](N)C(=O)N[C@H]2[C@@H](O)[C@H](n3cnc4c(N(C)C)ncnc43)O[C@@H]2CO)cc1,0.186,0.173
[O-][n+]1cccc(CO)c1,0.924,0.894
CCCCS(=N)(=O)CCC(N)C(=O)O (racemic),1.01,0.875
NC(=O)OCC(COC(N)=O)c1ccccc1,1.09,0.997
Cc1ccnc(NS(=O)(=O)c2ccc(N)cc2)n1,0.797,0.97
N.N.O=C([O-])C[O-].[Pt+2],1.05,1.04

Compound,PER2::LUC luminescence (time after treatment 24 h),PER2::LUC luminescence (time after treatment 30 h)
COC(=O)N[C@H](C(=O)N[C@@H](Cc1ccccc1)[C@@H](O)CN(Cc1ccc(-c2ccccn2)cc1)NC(=O)[C@@H](NC(=O)OC)C(C)(C)C)C(C)(C)C,0.876,0.954
Nc1ccc(S(=O)(=O)Nc2cnc3ccccc3n2)cc1,1.02 and 0.897,0.884 and 0.829
CNC[C@H](O)[C@@H](O)[C@H](O)[C@H](O)CO,0.928,1.05
NCCCC(O)(P(=O)(O)O)P(=O)(O)O,0.666,0.999
Cc1c2c(c(O)c3c(O)cccc13)C(=O)O[C@@H]2[C@@H]1[C@H](O)C(=O)C(C(N)=O)=C(O)[C@H]1N(C)C [Alpha-APO-OXYTETRACYCLINE],0.979,0.958
CC1=C([C@@H]2C=C3[C@@H](CC[C@]4(C)[C@@H]([C@H](C)CCCC(C)C)CC[C@@H]34)n3c(=O)n(-c4ccccc4)c(=O)n32)C[C@@H](O)C[C@@H]1O,0.94,0.899
COC(=O)Nc1ccc(-c2nc(N3CCOCC3)c3cnn(C4CCN(C(=O)OC)CC4)c3n2)cc1,0.44,0.732
CCCCCCCCCC[Si](C)(C)CCC(=O)NC(Cc1ccc(C)cc1)c1ccccc1 (stereo not given),1.11,1.16
OC(CCN1CCCCC1)(c1ccccc1)C1CCCCC1 (racemic),0.755,0.805
CCCCNc1cc(C(=O)O)cc(S(N)(=O)=O)c1Oc1ccccc1,1.21,1.86
C[C@H](Cn1cnc2c(N)ncnc21)OCP(=O)(O)O,1.03,1.25
CCOC(=O)[C@H](C)C[C@@H](Cc1ccc(-c2ccccc2)cc1)NC(=O)CCC(=O)O,1.09,0.971
N#CC(c1ccnc(OCc2ccc(CN3CCOCC3)cc2)n1)c1nc2ccccc2s1 (stereo not given),0.531,0.65
O=c1c(O[C@@H]2O[C@H](CO)[C@@H](O)[C@H](O)[C@H]2O)c(-c2ccc(O)c(O)c2)oc2cc(O)cc(O)c12,0.974,0.999
O=c1ncc(F)c[nH]1,0.979,0.911
N[C@H](C(=O)O)[C@@H]1CC(Cl)=NO1,0.429,0.458
CC(=O)Oc1ccccc1C(=O)Oc1ccccc1C(=O)O,0.951,0.934
CC(C)n1c(/C=C/C(O)CC(O)CC(=O)O)c(-c2ccc(F)cc2)c2ccccc21 (stereo not given),0.544 and 0.472,0.46 and 0.331
O=C(NCCCN1CCCCCC1)C(c1ccccc1)C1CCCCC1 (stereo not given),0.809,0.898
O=C(O)c1ccncc1,0.962,0.954
CC[C@H](NC(=O)c1c(O)c(-c2ccccc2)nc2ccccc12)c1ccccc1,1.04,0.983
CCCCCC(O)c1cccc(OCc2ccc3ccccc3n2)c1 (stereo not given),1.04,1.22

# Source: the supplement of paper PMC9334596
